{
  "source": "PubChem BioAssay AID1508642",
  "about": "(National Center for Advancing Translational Sciences (NCATS), 2021)",
  "note": "The campaign covered roughly 43,000 compounds. About 200 (0.47%) were called active. Roughly 12% stayed inconclusive and do not appear here. The call rests on the fitted dose curve; in most records, active means well fitted cell-killing curve with a large enough effect; inconclusive means small, poorly fitted or top-dose-only effect, or effect the other way; inactive means flat fitted curve, though single readings scatter. Some of the results follow. On the % scale 0 is the no-effect control and ±100 the full control effect.",
  "data": [
    {"experiment": "Cell viability qHTS assay in S16 Pmp22-F2sN cells; further: nearly all actives have a fitted effect of over 65% in size", "conditions": "S16 Pmp22-F2sN Schwann cells (luciferase reporters placed in the Pmp22 gene) viability, CellTiter-Glo, 24 h; series mostly up to 57.5 µM; activity change, negative = cytotoxicity: at the top concentration", "procedure,_shortened": "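Seed 500-1,000 S16 Pmp22-F2sN cells per well in phenol-red-free DMEM with 10% heat-inactivated FBS; pin-add 23 nL compound; incubate 24 h at 37C; add CellTiter-Glo, wait 15 min protected from light; read luminescence.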", "values": [
      {"smiles": "CN(C(=O)c1ccc2c(c1)N(Cc1ccc(F)cc1)C(=O)c1ccccc1S2(=O)=O)C1CCCCC1", "activity change, negative = cytotoxicity": "inactive: 3.72%"},
      {"smiles": "COc1ccc(C(=O)NNc2ncnc3c2cnn3-c2ccc(C)cc2C)cc1", "activity change, negative = cytotoxicity": "inactive: 6.66%"},
      {"smiles": "CCC(CC)C(=O)Nc1nnc(S(=O)(=O)N2c3ccccc3CC2C)s1", "note": "(stereo not given)", "activity change, negative = cytotoxicity": "inactive: 6.55%"},
      {"smiles": "O=C(Nc1ccc(-c2nc3cc(NC(=O)c4ccc(Cl)cc4)ccc3o2)cc1)c1ccc(Cl)cc1", "activity change, negative = cytotoxicity": "inactive: 1.27%"},
      {"smiles": "COc1ccc(-c2cc(C(F)(F)F)n3nc(C(=O)Nc4sc5c(c4C(=O)OC(C)C)CCC(C)C5)cc3n2)cc1", "note": "(stereo not given)", "activity change, negative = cytotoxicity": "inactive: 23.7%"},
      {"smiles": "CCCN(CCC)C(=O)C1CCCN(S(=O)(=O)c2cc(Br)cc3c2N(C(=O)CC)CC3)C1", "note": "(stereo not given)", "activity change, negative = cytotoxicity": "inactive: 3.36%"},
      {"smiles": "CCc1ccc(C(=O)NC2=NC(c3cc(OC)ccc3OC)CC(=O)N2)cc1", "note": "(stereo not given)", "activity change, negative = cytotoxicity": "inactive: -1.11%"},
      {"smiles": "Cc1ccc(-c2nn(C)c(=O)c3ccccc23)cc1S(=O)(=O)NCCCN(C)C", "activity change, negative = cytotoxicity": "inactive: 3.09%"},
      {"smiles": "CC(=O)Nc1ccc(NC(=O)C(c2ccccc2)N2Cc3ccccc3C2=O)cc1", "note": "(stereo not given)", "activity change, negative = cytotoxicity": "inactive: -2.01%"},
      {"smiles": "COC(=O)c1ccc(-c2nc(-c3ccc(OC)c(OC)c3)no2)cc1", "activity change, negative = cytotoxicity": "inactive: 6.92%"},
      {"smiles": "O=S(=O)(c1ccc(Br)cc1)c1nnn2c1nc(NCCc1ccccc1)c1sccc12", "activity change, negative = cytotoxicity": "inactive: -2.62%"},
      {"smiles": "Cc1ccc(CCNC(=O)CCn2nc(-c3ccc(Cl)cc3)ccc2=O)cc1", "activity change, negative = cytotoxicity": "inactive: 3.66%"},
      {"smiles": "Cc1nc2ccc(S(=O)(=O)NC(C(=O)N3CCN(c4cccc(Cl)c4)CC3)C(C)C)cc2s1", "note": "(stereo not given)", "activity change, negative = cytotoxicity": "inactive: 14.7%"},
      {"smiles": "COc1ccc(N2C(=O)CCSC23C(=O)N(Cc2ccc(F)cc2)c2ccccc23)cc1", "note": "(stereo not given)", "activity change, negative = cytotoxicity": "inactive: 10.4%"},
      {"smiles": "O=C(c1ccc2c(c1)N(Cc1ccc(Cl)cc1)C(=O)c1ccccc1S2(=O)=O)N1CCN(Cc2ccccc2)CC1", "activity change, negative = cytotoxicity": "inactive: 10.6%"},
      {"smiles": "Cc1cc(C)cc(NC(=O)CCc2c(C)nc3c(c2C)c(=O)n(C)c(=O)n3C)c1", "activity change, negative = cytotoxicity": "inactive: 6.62%"},
      {"smiles": "Cc1ccc(NC(=O)c2sc3nc(-c4ccncc4)ccc3c2N)cc1", "activity change, negative = cytotoxicity": "inactive: 0.96%"},
      {"smiles": "CCOc1ccc(S(=O)(=O)c2c(C(=O)c3ccc(C)c(C)c3)cnc3ccccc23)cc1", "activity change, negative = cytotoxicity": "inactive: 4.96%"},
      {"smiles": "COc1cc(NC(=O)C(NS(=O)(=O)c2ccc3c(c2)CCCC(=O)N3)C(C)C)cc(OC)c1", "note": "(stereo not given)", "activity change, negative = cytotoxicity": "inactive: 0.39%"},
      {"smiles": "COC(=O)c1sccc1S(=O)(=O)N(CC(=O)Nc1ccc(C)c(F)c1)c1ccc(C)c(C)c1", "activity change, negative = cytotoxicity": "inactive: -20.7%"},
      {"smiles": "Cc1ccccc1Cn1c(=O)n(CCc2ccccc2)c(=O)c2sc3ccccc3c21", "activity change, negative = cytotoxicity": "inactive: -1.09%"},
      {"smiles": "Cc1ccccc1C(=O)Nc1nnc(S(=O)(=O)N(C)c2ccc(Cl)cc2)s1", "activity change, negative = cytotoxicity": "inactive: -12.1%"},
      {"smiles": "O=C(COc1ccc(F)cc1)Nc1ccc(S(=O)(=O)N(Cc2ccccc2)c2ccccc2)cc1", "activity change, negative = cytotoxicity": "inactive: -3.96%"},
      {"smiles": "CCc1ccc(CNC(=O)c2sc3nc[nH]c(=O)c3c2C)cc1", "activity change, negative = cytotoxicity": "inactive: 2.5%"},
      {"smiles": "COc1ccc(-c2cc(C(C)=O)c(C)n2CCC(=O)Nc2ccc(C)c(Cl)c2)cc1", "activity change, negative = cytotoxicity": "inactive: -15.1%"},
      {"smiles": "CCCNc1ncnc2c1c(-c1ccccc1)cn2-c1ccc(OCC)cc1", "activity change, negative = cytotoxicity": "inactive: -18.5%"},
      {"smiles": "O=c1cc(CSc2ccccc2)[nH]c2ccc(F)cc12", "activity change, negative = cytotoxicity": "inactive: -28.5%"},
      {"smiles": "COc1ccc(NC(=O)CCn2c(-c3ccc(F)cc3)cc(C(C)=O)c2C)c(OC)c1", "activity change, negative = cytotoxicity": "inactive: -11.8%"},
      {"smiles": "COc1ccc(OC)c(CNc2ncnc3c2nc2n3CCCC2)c1", "activity change, negative = cytotoxicity": "inactive: -2.53%"},
      {"smiles": "CCN(C(=O)Cc1c(C(=O)O)c(C)cn1C)c1cccc(Cl)c1", "activity change, negative = cytotoxicity": "inactive: -3.16%"},
      {"smiles": "CCc1c(C)nc(SCc2nc(-c3ccccc3C)no2)[nH]c1=O", "activity change, negative = cytotoxicity": "inactive: -1.17%"},
      {"smiles": "Cc1ccc(NC(=O)c2c(C)oc3ccc(O)c(CN(C)Cc4ccccc4)c23)c(C)c1", "activity change, negative = cytotoxicity": "inactive: -26.7%"},
      {"smiles": "CCc1ccc(Nc2nnc(-c3cc4cc(OC)ccc4oc3=O)s2)cc1", "activity change, negative = cytotoxicity": "inactive: 4.82%"},
      {"smiles": "CCc1cccc(C)c1NC(=O)c1cc(S(=O)(=O)N2CCCCCC2)cn1C", "activity change, negative = cytotoxicity": "inactive: -0.811%"},
      {"smiles": "O=C(NC1CC1)c1ccc(Cn2c(SCc3ccc(F)cc3)nc3cccnc32)cc1", "activity change, negative = cytotoxicity": "inactive: -10.5%"},
      {"smiles": "COc1ccc(-c2cc(C(F)(F)F)nc(SCCC(=O)Nc3cccc(OC)c3)n2)cc1", "activity change, negative = cytotoxicity": "inactive: -8.47%"},
      {"smiles": "Cc1cccc(N2CCN(C(=O)c3cccn3-c3nnc(N4CCCCC4)s3)CC2)c1C", "activity change, negative = cytotoxicity": "inactive: -29.2%"},
      {"smiles": "CCc1ccc(NC(=O)c2ccc(NS(=O)(=O)c3c(C)noc3C)cc2)cc1", "activity change, negative = cytotoxicity": "inactive: -6.96%"},
      {"smiles": "CCOC(=O)c1ccccc1NC(=O)c1cc2c(s1)-c1ccccc1SC2", "activity change, negative = cytotoxicity": "inactive: -0.269%"},
      {"smiles": "CC1=C(c2ccc(Cl)cc2)S(=O)(=O)N=C1N1CCC(C(=O)NCCc2ccco2)CC1", "activity change, negative = cytotoxicity": "inactive: -19.1%"},
      {"smiles": "COc1ccc(Br)cc1CNC(=O)CCc1cn(Cc2ccc(C)cc2)c2ccccc12", "activity change, negative = cytotoxicity": "inactive: 1.14%"},
      {"smiles": "Cc1scc(CN2CCN(c3ccc(F)cc3)CC2)c1C", "activity change, negative = cytotoxicity": "inactive: 16%"},
      {"smiles": "COc1ccccc1N1CCN(S(=O)(=O)CCNC(=O)COc2ccccc2F)CC1", "activity change, negative = cytotoxicity": "inactive: 4.51%"},
      {"smiles": "O=C(CCCn1c(=O)c2sccc2n(Cc2ccc(Cl)cc2)c1=O)NCc1ccc2c(c1)OCO2", "activity change, negative = cytotoxicity": "inactive: -0.893%"},
      {"smiles": "Cc1ccc(CNc2ncccc2-c2nc(-c3ccc(Cl)cc3)no2)cc1", "activity change, negative = cytotoxicity": "inactive: 2.29%"},
      {"smiles": "CC(C)CC(NC(=O)C1CCCCC1)C(=O)Nc1cccc(C(F)(F)F)c1", "note": "(stereo not given)", "activity change, negative = cytotoxicity": "inactive: 1.53%"},
      {"smiles": "CC(C)c1ccc(NC(=O)CN2C(=O)CSc3ccc(S(=O)(=O)N4CCCC4)cc32)cc1", "activity change, negative = cytotoxicity": "inactive: -3.95%"},
      {"smiles": "Cc1ccc(N2C(=O)N(CC(=O)C(C)(C)C)c3ccccc3S2(=O)=O)cc1C", "activity change, negative = cytotoxicity": "inactive: 8.57%"},
      {"smiles": "CCCSc1nnc2c(n1)OC(c1sccc1C)Nc1ccccc1-2", "note": "(stereo not given)", "activity change, negative = cytotoxicity": "inactive: 5.45%"},
      {"smiles": "CCc1cccc(NC(=O)c2cc3c(=O)n(Cc4ccc(OC)cc4)ccc3nc2C)c1", "activity change, negative = cytotoxicity": "inactive: -28.8%"},
      {"smiles": "CCOc1ccc(CCNC(=O)c2ccc(Nc3nc4ccccc4n4nnnc34)cc2)cc1OCC", "activity change, negative = cytotoxicity": "inactive: -26.9%"},
      {"smiles": "CCOc1ccc(-c2cc(C(=O)N3CCN(S(=O)(=O)c4cc(Cl)ccc4OC)CC3)[nH]n2)cc1", "activity change, negative = cytotoxicity": "inactive: -8.24%"},
      {"smiles": "Cc1ccc(C2CC(=O)Nc3cc4c(cc32)OCCO4)cc1", "note": "(stereo not given)", "activity change, negative = cytotoxicity": "inactive: -4.01%"},
      {"smiles": "CCc1ccc(Cn2c(CNS(=O)(=O)c3ccc(F)c(Cl)c3)nc3cccnc32)cc1", "activity change, negative = cytotoxicity": "inactive: -0.826%"},
      {"smiles": "CCOc1ccc(C(=O)c2oc3ccccc3c2NC(=O)Cc2coc3cc(C)cc(C)c23)cc1", "activity change, negative = cytotoxicity": "inactive: 5.79%"},
      {"smiles": "CC(=O)N1CCCC1c1nc2ccccc2n1Cc1ccccc1", "note": "(stereo not given)", "activity change, negative = cytotoxicity": "inactive: 7.81%"},
      {"smiles": "Cc1ccc(C)c(N2CCN(C(=O)Cn3ncc4ccsc4c3=O)CC2)c1", "activity change, negative = cytotoxicity": "inactive: -8.81%"},
      {"smiles": "CCOC(=O)c1ccc(NC(=O)c2c(N3CCCC3=O)c3cc(OC)ccc3n2C)cc1", "activity change, negative = cytotoxicity": "inactive: 6.17%"},
      {"smiles": "Cc1cc2oc(C(=O)N(Cc3ccccc3F)C3CCS(=O)(=O)C3)c(C)c2cc1Cl", "note": "(stereo not given)", "activity change, negative = cytotoxicity": "inactive: -8.6%"},
      {"smiles": "Cc1c(Cl)cccc1NC(=O)CN1C(=O)COc2ccc(S(=O)(=O)N3CCOCC3)cc21", "activity change, negative = cytotoxicity": "inactive: 3.14%"}
    ]}
  ]
}
